PubChem BioAssay AID624296 (National Center for Advancing Translational Sciences (NCATS), 2012)
About 9,900 (2.8%) of roughly 350,000 compounds were called active. Inconclusive results, whose numbers are uncertain, are shown with a selection of clear calls. Calls come from the whole dose curve; as a rule, active = well fitted activation curve with a large enough effect; inconclusive = small, poorly fitted or top-dose-only effect; inactive = no such curve, though single readings can be large or run the other way. Potencies of inconclusive entries are left out as doubtful fits.

Assay: A quantitative high throughput screen for small molecules that induce DNA re-replication in MCF 10a normal breast cells. Note: nearly all actives have a fitted effect of over 50% in size.
Details: MCF 10A DNA re-replication, Hoechst nuclear intensity, 48 h; series mostly up to 46.1 µM
Potency is the fitted concentration of half-maximal effect; tags give direction and shape of the fitted curve.

| Compound | Potency |
| --- | --- |
| N#Cc1ccsc1NC(=O)CCc1ccccc1 | inconclusive [activator, single point] |
| CCOC(=O)c1[nH]c2ccc(OC)cc2c1NC(=O)c1nonc1C | inconclusive [activator, partial curve, poor fit] |
| O=C(CSCc1ccc(Cl)cc1)Nc1ccc(Br)cc1C(=O)O | inconclusive [activator, single point] |
| Cc1ccc(S(=O)(=O)NCCSc2ncccn2)cc1 | inconclusive [activator, single point] |
| O=[N+]([O-])c1ccccc1Nc1ccc(O)cc1 | inconclusive [activator, partial curve, poor fit] |
| O=C(/C=C/c1ccccc1)c1ccc2ccccc2c1 | inconclusive [activator, partial curve, poor fit] |
| Cc1nnc(NC(=O)c2ccc(S(=O)(=O)N3CC(C)CC(C)C3)cc2)o1 (stereo not drawn) | inactive |
| C/C(=N/NC(=O)c1nnn(-c2nonc2N)c1-c1ccccc1)c1ccncc1 | inconclusive [activator, single point] |
| Cc1ccc2cc(C#N)c(N3CCCN(C(=O)C4CCCO4)CC3)nc2c1C (stereo not drawn) | active: 20.6 µM |
| COc1cc(C(=O)Nc2cccnc2)cc(OC)c1OC | inconclusive [activator, single point] |
| CCN(Cc1ccccc1)S(=O)(=O)c1ccc(C(=O)N(CCCN(C)C)c2nc3c(F)cccc3s2)cc1 | inconclusive [activator, single point] |
| O=C(CSc1ccc2ccccc2n1)Nc1ccc(N2CCOCC2)cc1 | inconclusive [activator, single point] |
| CCc1c(C)nc(SCC(=O)N2CCCCC2CC)[nH]c1=O (stereo not drawn) | inconclusive [activator, partial curve, poor fit] |
| NS(=O)(=O)c1ccc(CCNc2ncnc3c2c(-c2ccccc2)cn3-c2ccc(F)cc2)cc1 | inconclusive [activator, single point] |
| CCOc1cc(C(=O)N(C)CC(=O)Nc2cccc(F)c2)ccc1OCC(=O)N1CCCCC1 | inconclusive [activator, single point] |
| Cc1ccccc1CSCC(=O)NC1CCCC1 | inactive |
| Cc1cc(Oc2ccc(OCC(N)=O)nn2)nc(Cl)n1 | inconclusive [activator, partial curve, poor fit] |
| COC(=O)c1ccccc1Oc1cc(C(F)(F)F)nc(-c2ccccn2)n1 | inactive |
